The whole screen tested about 76,000 compounds, of which about 1,900 (2.5%) were called active. Inconclusive means that the source gave no clear call. Such entries were picked first, then a sample of the others. Calls follow the shape of the dose curve; as a rule, active = well fitted inhibition curve with a large enough effect; inconclusive = small, poorly fitted or top-dose-only effect; inactive = flat fitted curve, though single readings scatter. Where the call is inconclusive, the potency comes from a doubtful curve fit.
biological target: Luciferin 4-monooxygenase (Photinus pyralis) (UniProt P08659); experiment: Firefly luciferase inhibition profiling of diverse chemical library using quantitative high-throughput screening; also: nearly all actives have a fitted effect of over 65% in size; conditions: purified P. pyralis luciferase, luminescence, biochemical; series mostly up to 115 µM
Sequence of UniProt P08659 (P08659 whole entry, looked up): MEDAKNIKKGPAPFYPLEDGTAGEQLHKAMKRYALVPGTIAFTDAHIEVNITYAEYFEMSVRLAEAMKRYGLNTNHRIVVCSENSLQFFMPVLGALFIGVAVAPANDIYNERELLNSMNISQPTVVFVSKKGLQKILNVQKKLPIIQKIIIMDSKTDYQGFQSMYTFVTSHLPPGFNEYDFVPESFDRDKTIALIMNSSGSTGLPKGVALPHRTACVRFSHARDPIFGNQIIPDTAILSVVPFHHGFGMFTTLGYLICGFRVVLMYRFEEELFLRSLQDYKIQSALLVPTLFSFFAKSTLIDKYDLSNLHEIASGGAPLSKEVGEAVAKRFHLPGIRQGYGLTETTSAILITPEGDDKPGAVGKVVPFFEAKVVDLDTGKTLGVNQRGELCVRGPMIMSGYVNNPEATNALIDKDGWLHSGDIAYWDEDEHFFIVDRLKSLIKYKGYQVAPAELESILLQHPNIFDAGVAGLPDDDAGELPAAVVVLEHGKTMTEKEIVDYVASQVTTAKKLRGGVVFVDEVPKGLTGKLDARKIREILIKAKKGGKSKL
Method in brief: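 Inhibitors were tested against purified firefly luciferase in a biochemical, low-substrate format (both substrates at 10uM) and luminescence measured with a CCD imager.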
Potency is read from the fitted curve at half-maximal effect; tags tell the direction and shape of the fitted curve.

SMILES | Potency
CCc1cccc(NC(=O)N2CCCC(c3noc(COc4ccccc4F)n3)C2)c1 (configuration not stated) | inconclusive: 56.2 µM [inhibitor, partial curve]
CC1CCC(NC(=O)C2CCN(c3cc(C(F)(F)F)ncn3)CC2)CC1 (configuration not stated) | inconclusive: 50.1 µM [inhibitor, partial curve]
COCCNC(=O)[C@@H]1C[C@H](Oc2ccccc2)CN1C(=O)Nc1ccc2c(c1)OCCO2 | inconclusive: 50.1 µM [inhibitor, partial curve]
COCC(=O)N[C@H]1C[C@@H](Cc2cc(-c3ccccc3)on2)C1(C)C | inconclusive: 79.4 µM [inhibitor, partial curve]
Cc1ccc(NC(=O)N2CCc3[nH]c4ccc(F)cc4c3C2)cc1C | inconclusive: 39.8 µM [inhibitor, partial curve]
Cc1ccc(-c2cc(O)c3c(c2)CN(C(=O)[C@@H](N)Cc2cnc[nH]2)CCO3)cc1 | inconclusive: 44.7 µM [inhibitor, partial curve]
Cc1ccc(OCc2nc(C3CCN(C(=O)Cn4nc(C)cc4C)CC3)no2)cc1 | inactive
O=C(O)CCC(=O)N1Cc2[nH]cnc2C[C@H]1c1nc(-c2ccc(Cl)cc2)no1 | active: 70.8 µM
COc1cccc(NC(=O)c2ccc3c(c2)NC(C)(CCCCN2CCOCC2)CO3)c1 (configuration not stated) | inconclusive: 50.1 µM [inhibitor, partial curve]
O=C(NCc1ccccc1F)C1CCN(C(=O)c2ncn3c2COC(c2ccc(F)cc2)C3)CC1 (configuration not stated) | inconclusive: 39.8 µM [inhibitor, partial curve]
O=C(CCc1cccnc1)N1CCCC(CCc2cccc(F)c2)C1 (configuration not stated) | inconclusive: 56.2 µM [inhibitor, partial curve]
O=C(NC1CCCC1)O[C@H]1COCCN(c2nc3ccccc3o2)C1 | inactive
COCC(=O)Nc1ccc(-c2noc([C@@H]3CCCN3C)n2)cn1 | inconclusive: 70.8 µM [inhibitor, partial curve]
Cc1ccccc1CN1CC[C@H](c2nc3ncccc3[nH]2)C1 | inconclusive: 89.1 µM [inhibitor, partial curve]
COCCOc1ccc2c(n1)CCN(C(=O)CC1CCCCC1)C2 | inconclusive: 44.7 µM [inhibitor, partial curve]
CC(=O)N1CCN(C(=O)C2(C)CCc3cnc(Nc4ccccc4)nc32)CC1 (configuration not stated) | inactive
N#Cc1cccc(-c2cn3c(n2)N(C(=O)CC2CCCC2)CCC3)c1 | inconclusive: 39.8 µM [inhibitor, partial curve]
O=C(CCc1cc(Cl)no1)N1CCc2c(nc3cc(-c4ccccc4)[nH]n3c2=O)C1 | inconclusive: 44.7 µM [inhibitor, partial curve, poor fit]
Cc1ccc(-c2cc3c(=O)n(CCNC(=O)c4ccc(C)s4)ccn3n2)c(C)c1 | active: 4.47 µM
NC(=O)N1CCCC(C(=O)N2CCCN(c3ccc(F)cc3)CC2)C1 (configuration not stated) | inactive
Oc1ccccc1CN1CCNc2cc(-c3ccccc3)ncc2C1 | active: 2.51 µM

SMILES | Potency
COc1cccc(N2CCN(C(=O)c3cc4c(s3)CN(C3CCCC3)C4)CC2)c1 | inconclusive: 50.1 µM [inhibitor, partial curve]
Cc1ccccc1CN1CCC2(CC1)COCCN2C(=O)OCc1ccccc1 | inactive
COC(=O)[C@@H]1Cc2c([nH]c3ccccc23)[C@H]2C[C@@H](NCCNC(C)=O)C[C@@H](c3ccccc3F)N21 | inconclusive: 89.1 µM [inhibitor, single point]
CCOC(=O)C1CCN(C(=O)c2cc(Cn3ccnc3C(C)C)[nH]n2)CC1 | inactive
CCOc1cccc(-c2nc(C(=O)Nc3ccc(F)cc3)cs2)c1 | inconclusive: 28.2 µM [inhibitor, partial curve, poor fit]
CCCn1ccc2oc(C)c(C(=O)NCc3ccccc3)c2c1=O | inconclusive: 44.7 µM [inhibitor, partial curve]
O=C(c1cccnc1)N1CC(Oc2ccc(-c3noc(-c4ccccc4)n3)cc2)C1 | inconclusive: 3.98 µM [inhibitor, full curve]
CC(C)NC(=O)C[C@@H]1CCNC[C@@H]1Cc1cc(CC2CCCCC2)on1 | inactive
c1ccc(O[C@H]2COCCN(c3nc4ccccc4s3)C2)cc1 | inconclusive: 70.8 µM [inhibitor, partial curve]
Cn1cnc(S(=O)(=O)N2C[C@@H](C(=O)O)[C@H](c3ccccn3)C2)c1 | inactive
COc1ccc(-c2nc3cnccn3c2NCCC(=O)N2CCCCCC2)cc1 | inconclusive: 39.8 µM [inhibitor, partial curve]
COc1ccc(C(=O)N2CCC(n3cc(C(C)(C)C)nn3)CC2)c(OC)n1 | inconclusive: 20 µM [inhibitor, full curve]
CC(=O)NCC(=O)NCC1CCN(c2cc(-c3ccc(Cl)cc3)[nH]n2)CC1 | inconclusive: 44.7 µM [inhibitor, partial curve]
Cc1cccc(OCC2CCCN(c3ncncn3)C2)c1 (configuration not stated) | inconclusive: 39.8 µM [inhibitor, partial curve]
O=C(c1ccccc1F)N1CC(Oc2ccc(-c3nc(-c4ccccc4)no3)cc2)C1 | inconclusive: 15.8 µM [inhibitor, full curve]
O=C(NCC1Cn2cccc2CN1Cc1ccccc1)C1CC1 (configuration not stated) | inconclusive: 44.7 µM [inhibitor, partial curve]
O=C(NCc1cccs1)c1c[nH]c2ncccc12 | inconclusive: 50.1 µM [inhibitor, partial curve]
COc1ccc(Cn2c(-c3ccccc3)nc(C)c(CCO)c2=O)cc1F | inactive
COc1ccc(-c2nocc2CCC(=O)NCCc2ccc(S(N)(=O)=O)cc2)cc1 | inconclusive: 56.2 µM [inhibitor, partial curve]
CCn1c2c(c(=O)n1Cc1ccccc1)CCN(Cc1c[nH]c3ccccc13)C2 | inactive
COc1ccc(NC(=O)O[C@@H]2C=C[C@H](c3c(C)nn(-c4ccc(F)cc4)c3C)C2)cc1 | inconclusive: 44.7 µM [inhibitor, partial curve, poor fit]
